From PMC7395068, “The evolution of strategies to minimise the risk of human drug-induced liver injury (DILI) in drug discovery and development” (Archives of Toxicology, 2020)
Like-named read-outs stand apart in the source and are kept apart here.

Key:
[1] = tested on: THLE or HepG2 cells, isolated mitochondria, BSEP; details: cited from earlier work
hLiMTs [2] = details: ATP, IC50 < 100 × Cmax.tot, ref Proctor et al. 2017; cited from earlier work
PHH = details: 2D PHH, ATP, IC50 < 100 × Cmax.tot; ref Proctor et al. 2017; cited from earlier work
[3] = Plasma free fraction (fu) and unbound Cmax (Cmax,u); assay type: in vitro ADME, human; details: unbound plasma Cmax
[4] = tested on: HepG2 C3A spheroid, BSEP, Glu/Gal in HepG2 cells, bioactivation; details: cited from earlier work
hLiMTs [5] = test: Combined HCI (HCS) and cellular ATP 3D assay in hLiMTs
[6] = cited from earlier work
HepaRG spheroids = test: Combined HCI (HCS) and cellular ATP 3D assay in HepaRG spheroids; details: HepaRG
[7] = cited from earlier work; remark: listed apart in the source
[8] = plasma free fraction; cited from earlier work
human hepatocytes = details: In vitro Assay; ref Xu 2008; cited from earlier work
[9] = tested on: primary human hepatocytes, NIH3T3 fibroblasts, BSEP, CYP3A4; details: cited from earlier work
PHH spheroids = details: In vitro Assay; ref Vorrink 2018; cited from earlier work
[10] = tested on: isolated mouse liver mitochondria; details: In vitro Assay; ref Porceddu 2012; cited from earlier work
[11] = in vivo; cited from earlier work
[12] = Modeled in vitro assays (cytotoxicity, mitochondrial dysfunction, BSEP), ref Aleo et al. 2019
[13] = In vitro Assay, ref Schadt 2015
[14] = LTKB DILIrank category, ref Chen 2016

NCCCC(O)(P(=O)(O)O)P(=O)(O)O [alendronate]
Ro2 Hybrid HRM Score ([1]; In vitro Assay, ref Aleo 2019): -VE
Rule of Two hybrid HRM Score ≥3, Aleo (2019) [1, 12]: -VE
Rule of Two hybrid HRM Score ≥8, Aleo (2019) [1, 12]: -VE
hLiMTs/100xCmax, Proctor (2017) (hLiMTs [2]): -VE
PHH/100xCmax, Proctor (2017) (PHH): -VE
Human plasma Cmax,u [3]: 4 nM
Bayesian Machine Learning DILI prediction, Williams (2019) ([4]; Bayesian modeling, ref Williams et al. 2019): -VE
Bayesian Machine Learning ([4]; In vitro Assay, ref Williams 2019): -VE
DILI prediction hLiMTs (HCS-MEC) (hLiMTs [5]; Microtissue model structural based (HCI), combined HCS and ATP, MEC < 25 × Cmax.tot cut-off): -VE
hLiMTs <25x Avg Cmax ATP (hLiMTs [5]; hLiMTs, ATP endpoint, cut-off <25x Avg Cmax): -ve
hLiMTs <100x Avg Cmaxu ATP (hLiMTs [5]; hLiMTs, ATP endpoint, cut-off <100x Avg Cmaxu): -ve
hLiMTs <25x Avg Cmax HCS (hLiMTs [5]; hLiMTs, HCS endpoints, cut-off <25x Avg Cmax): -ve
hLiMTs <100x Avg Cmaxu HCS (hLiMTs [5]; hLiMTs, HCS endpoints, cut-off <100x Avg Cmaxu): -ve
hLiMTs <25x Avg Cmax All (hLiMTs [5]; hLiMTs, all endpoints (ATP and HCS), cut-off <25x Avg Cmax): -ve
hLiMTs Cmax max All (hLiMTs [5]; hLiMTs, all endpoints, Cmax max used): -ve
hLiMTs Cmax min All (hLiMTs [5]; hLiMTs, all endpoints, Cmax min used): -ve
hLiMTs <100x Avg Cmaxu All (hLiMTs [5]; hLiMTs, all endpoints, cut-off <100x Avg Cmaxu): -ve
Assigned DILI category ([6]; Chen et al. 2016 or literature alignment, ref Chen et al. 2016): 2
In vivo DILI ([6]; ref Aleo 2019): +VE
In vivo DILI ([6]; ref Proctor 2017): -VE
In vivo DILI ([6]; ref Williams 2019): -VE
HepaRG <25x Avg Cmax ATP (HepaRG spheroids; ATP endpoint, cut-off <25x Avg Cmax): +ve
HepaRG <100x Avg Cmaxu ATP (HepaRG spheroids; ATP endpoint, cut-off <100x Avg Cmaxu): +ve (<100x Avg Cmaxu)
HepaRG <25x Avg Cmax HCS (HepaRG spheroids; HCS endpoints, cut-off <25x Avg Cmax): -ve
HepaRG <100x Avg Cmaxu HCS (HepaRG spheroids; HCS endpoints, cut-off <100x Avg Cmaxu): -ve
HepaRG <25x Avg Cmax All (HepaRG spheroids; all endpoints (ATP and HCS), cut-off <25x Avg Cmax): +ve
HepaRG Cmax max All (HepaRG spheroids; all endpoints, Cmax max used): +ve
HepaRG Cmax min All (HepaRG spheroids; all endpoints, Cmax min used): +ve
HepaRG <100x Avg Cmaxu All (HepaRG spheroids; all endpoints, cut-off <100x Avg Cmaxu): +ve (<100x Avg Cmaxu)
DILI severity category (Chen 2016) ([7]; human DILI classification, LTKB DILIrank, ref Chen et al. 2016): Less
DILI severity category ([7]; human DILI severity, ref Chen et al.): Less
DILI +VE (5-8), DILI -VE (-4) ([7]; ref Chen 2016): +VE
DILI severity category ([7]; ref Chen 2016): vLess-DILI-Concern
fu [8]: 0.220

CC(C)NCC(O)COc1ccc(CC(N)=O)cc1 (centres unmarked) [atenolol]
Structural based (HCI) (human hepatocytes): -VE
Cellular toxicity (3T3 cells) [9, 13]: -VE
Combined Assay [9, 13]: -VE
GSH adduct HML [9, 13]: -VE
Hepatocyte cellular toxicity [9, 13]: -VE
MitoTox 3T3 [9, 13]: -VE
TDI CYP3A4 [9, 13]: -VE
hBSEP inhibition [9, 13]: -VE
In vivo DILI ([6]; ref Schadt 2015): -VE
In vivo DILI ([6]; ref Vorrink 2018): -VE
In vivo DILI ([6]; ref Xu 2008): -VE
DILI +VE (5-8), DILI -VE (-4) ([7]; ref Chen 2016): +VE
DILI severity category ([7]; ref Chen 2016): vLess-DILI-Concern
hLiMTs ATP <20 x Cmax (PHH spheroids): -VE

CC(C)c1c(C(=O)Nc2ccccc2)c(-c2ccccc2)c(-c2ccc(F)cc2)n1CC[C@@H](O)C[C@@H](O)CC(=O)O [atorvastatin]
Cellular toxicity (3T3 cells) [9, 13]: +VE
Combined Assay [9, 13]: -VE
GSH adduct HML [9, 13]: -VE
Hepatocyte cellular toxicity [9, 13]: +VE
MitoTox 3T3 [9, 13]: -VE
TDI CYP3A4 [9, 13]: -VE
hBSEP inhibition [9, 13]: +VE
In vivo DILI ([6]; […]): +VE
In vivo DILI ([6]; ref Porceddu 2012): +VE
In vivo DILI ([6]; ref Proctor 2017): +VE
In vivo DILI ([6]; ref Schadt 2015): +VE
DILI +VE (5-8), DILI -VE (-4) ([7]; ref Chen 2016): +VE
DILI severity category ([7]; ref Chen 2016): vMost-DILI-Concern
in vitro data EC2<=1x Cmax [10]: +VE

CN1[C@@H]2CC[C@H]1C[C@@H](OC(=O)C(CO)c1ccccc1)C2 (some centres unmarked) [atropine]
Combined Assay [9]: -VE
Hepatocyte cellular toxicity [9]: -VE
DILI +VE (5-8), DILI -VE (-4) ([7]; in vivo): -VE
DILI severity category ([7]; in vivo): vNo-DILI-Concern

CC1=C(C(=O)O)N2C(=O)[C@@H](NC(=O)[C@H](N)c3ccccc3)[C@H]2SC1 [cephalexin]
DILI severity category [7, 14]: vLess-DILI-Concern

O=C(O)COCCN1CCN(C(c2ccccc2)c2ccc(Cl)cc2)CC1 (centres unmarked) [cetirizine]
DILI severity category [7, 14]: vLess-DILI-Concern

O=C(O)c1cn(C2CC2)c2cc(N3CCNCC3)c(F)cc2c1=O [ciprofloxacin]
DILI Score (FDA) (1-8) [11]: 7
Cellular toxicity (3T3 cells) [9, 13]: +VE
Combined Assay [9, 13]: +VE
GSH adduct HML [9, 13]: -VE
Hepatocyte cellular toxicity [9, 13]: -VE
MitoTox 3T3 [9, 13]: -VE
TDI CYP3A4 [9, 13]: -VE
hBSEP inhibition [9, 13]: -VE
In vivo DILI ([6]; in vivo): +VE
DILI +VE (5-8), DILI -VE (-4) ([7]; in vivo): +VE
DILI severity category ([7]; in vivo): vMost-DILI-Concern
in vitro data EC2<=1x Cmax [10]: +VE

CN1C(=O)CN=C(c2ccccc2)c2cc(Cl)ccc21 [diazepam]
DILI +VE (5-8), DILI -VE (-4) ([7]; in vivo): -VE
DILI severity category ([7]; in vivo): Ambiguous DILI-concern

CN(C)CCOC(c1ccccc1)c1ccccc1 [diphenhydramine]
Structural based (HCI) (human hepatocytes): -VE
In vivo DILI ([6]; […]): -VE
In vivo DILI ([6]; ref Aleo 2019): -VE
In vivo DILI ([6]; ref O'Brien 2006): -VE
In vivo DILI ([6]; ref Persson 2013): -VE
In vivo DILI ([6]; ref Schadt 2015): -VE
In vivo DILI ([6]; ref Vorrink 2018): -VE
In vivo DILI ([6]; ref Xu 2008): -VE
DILI +VE (5-8), DILI -VE (-4) ([7]; ref Chen 2016): -VE
DILI severity category ([7]; ref Chen 2016): vNo-DILI-Concern
hLiMTs ATP <20 x Cmax (PHH spheroids): -VE

CC(C)(C(=O)O)c1ccc(C(O)CCCN2CCC(C(O)(c3ccccc3)c3ccccc3)CC2)cc1 (centres unmarked) [fexofenadine]
In vivo DILI ([6]; in vivo): -VE
DILI +VE (5-8), DILI -VE (-4) ([7]; in vivo): -VE
DILI severity category ([7]; in vivo): vNo-DILI-Concern

Cc1cnc(C(=O)NCCc2ccc(S(=O)(=O)NC(=O)NC3CCCCC3)cc2)cn1 [glipizide]
DILI +VE (5-8), DILI -VE (-4) ([7]; in vivo): +VE
DILI severity category ([7]; in vivo): vLess-DILI-Concern
